# Measured values reported in the supplement of paper PMC8728848.
# The other results are listed elsewhere or left out.
# B1: FliC (Pseudomonas aeruginosa), P72151 (protein)
# chain: MALTVNTNIASLNTQRNLNASSNDLNTSLQRLTTGYRINSAKDDAAGLQISNRLSNQISGLNVATRNANDGISLAQTAEGALQQSTNILQRIRDLALQSANGSNSDADRAALQKEVAAQQAELTRISDTTTFGGRKLLDGSFGTTSFQVGSNAYETIDISLQNASASAIGSYQVGSNGAGTVASVAGTATASGIASGTVNLVGGGQVKNIAIAAGDSAKAIAEKMDGAIPNLSARARTVFTADVSGVTGGSLNFDVTVGSNTVSLAGVTSTQDLADQLNSNSSKLGITASINDKGVLTITSATGENVKFGAQTGTATAGQVAVKVQGSDGKFEAAAKNVVAAGTAATTTIVTGYVQLNSPTAYSVSGTGTQASQVFGNASAAQKSSVASVDISTADGAQNAIAVVDNALAAIDAQRADLGAVQNRFKNTIDNLTNISENATNARSRIKDTDFAAETAALSKNQVLQQAGTAILAQANQLPQAVLSLLR
# Key:
# Experiment in all cases: glycan array binding signal (z-score within array); higher = stronger binding
# Details in all cases: glycan notation: IUPAC condensed, linker removed
# [1] = biological target: Gal(b1-4)GlcNAc(b1-3)Gal(b1-4)GlcNAc(b1-3)Gal(b1-4)GlcNAc(b1-2)Man(a1-3)[Gal(b1-4)GlcNAc(b1-3)Gal(b1-4)GlcNAc(b1-3)Gal(b1-4)GlcNAc(b1-2)Man(a1-6)]Man(b1-4)GlcNAc(b1-4)GlcNAc
# Summary of the method: (§1)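 Arrays were curated from the Consortium for Functional Glycomics database, 3228 in total, and kept only where the protein sequence was available. Binding is expressed as a within-array Z-score. This score was averaged across arrays of the same protein sequence at different concentrations or buffers and across linkers, and negative values can be read as non-binding.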
# [2] = biological target: Gal(b1-4)GlcNAc(b1-3)Gal(b1-4)GlcNAc(b1-3)Gal(b1-4)GlcNAc(b1-2)Man(a1-3)[Gal(b1-4)GlcNAc(b1-3)Gal(b1-4)GlcNAc(b1-3)Gal(b1-4)GlcNAc(b1-2)Man(a1-6)]Man(b1-4)GlcNAc(b1-4)[Fuc(a1-6)]GlcNAc
# Summary of the method: as §1
# [3] = biological target: Gal(b1-4)GlcNAc(b1-3)Gal(b1-4)GlcNAc(b1-3)Gal(b1-4)GlcNAc(b1-2)[Gal(b1-4)GlcNAc(b1-3)Gal(b1-4)GlcNAc(b1-3)Gal(b1-4)GlcNAc(b1-6)]Man(a1-6)[Gal(b1-4)GlcNAc(b1-3)Gal(b1-4)GlcNAc(b1-3)Gal(b1-4)GlcNAc(b1-2)Man(a1-3)]Man(b1-4)GlcNAc(b1-4)[Fuc(a1-6)]GlcNAc
# Summary of the method: as §1
# [4] = biological target: Gal(b1-4)GlcNAc(b1-3)Gal(b1-4)GlcNAc(b1-3)Gal(b1-4)GlcNAc(b1-3)Gal(b1-4)GlcNAc(b1-2)Man(a1-3)[Gal(b1-4)GlcNAc(b1-3)Gal(b1-4)GlcNAc(b1-3)Gal(b1-4)GlcNAc(b1-3)Gal(b1-4)GlcNAc(b1-2)Man(a1-6)]Man(b1-4)GlcNAc(b1-4)GlcNAc
# Summary of the method: as §1
# [5] = biological target: Gal(b1-4)GlcNAc(b1-3)Gal(b1-4)GlcNAc(b1-3)Gal(b1-4)GlcNAc(b1-3)Gal(b1-4)GlcNAc(b1-2)Man(a1-3)[Gal(b1-4)GlcNAc(b1-3)Gal(b1-4)GlcNAc(b1-3)Gal(b1-4)GlcNAc(b1-3)Gal(b1-4)GlcNAc(b1-2)Man(a1-6)]Man(b1-4)GlcNAc(b1-4)[Fuc(a1-6)]GlcNAc
# Summary of the method: as §1
# [6] = biological target: Gal(b1-4)GlcNAc(b1-3)Gal(b1-4)GlcNAc(b1-3)Gal(b1-4)GlcNAc(b1-3)Gal(b1-4)GlcNAc(b1-2)[Gal(b1-4)GlcNAc(b1-3)Gal(b1-4)GlcNAc(b1-3)Gal(b1-4)GlcNAc(b1-3)Gal(b1-4)GlcNAc(b1-6)]Man(a1-6)[Gal(b1-4)GlcNAc(b1-3)Gal(b1-4)GlcNAc(b1-3)Gal(b1-4)GlcNAc(b1-3)Gal(b1-4)GlcNAc(b1-2)Man(a1-3)]Man(b1-4)GlcNAc(b1-4)[Fuc(a1-6)]GlcNAc
# Summary of the method: as §1
# [7] = biological target: Gal(b1-4)GlcNAc(b1-3)Gal(b1-4)GlcNAc(b1-3)Gal(b1-4)GlcNAc(b1-3)Gal(b1-4)GlcNAc(b1-3)Gal(b1-4)GlcNAc(b1-2)Man(a1-3)[Gal(b1-4)GlcNAc(b1-3)Gal(b1-4)GlcNAc(b1-3)Gal(b1-4)GlcNAc(b1-3)Gal(b1-4)GlcNAc(b1-3)Gal(b1-4)GlcNAc(b1-2)Man(a1-6)]Man(b1-4)GlcNAc(b1-4)GlcNAc
# Summary of the method: as §1
# [8] = biological target: Gal(b1-4)GlcNAc(b1-3)Gal(b1-4)GlcNAc(b1-3)Gal(b1-4)GlcNAc(b1-3)Gal(b1-4)GlcNAc(b1-3)Gal(b1-4)GlcNAc(b1-2)Man(a1-3)[Gal(b1-4)GlcNAc(b1-3)Gal(b1-4)GlcNAc(b1-3)Gal(b1-4)GlcNAc(b1-3)Gal(b1-4)GlcNAc(b1-3)Gal(b1-4)GlcNAc(b1-2)Man(a1-6)]Man(b1-4)GlcNAc(b1-4)[Fuc(a1-6)]GlcNAc
# Summary of the method: as §1
# [9] = biological target: Gal(b1-4)GlcNAc(b1-3)Gal(b1-4)GlcNAc(b1-3)Gal(b1-4)GlcNAc(b1-3)Gal(b1-4)GlcNAc(b1-3)Gal(b1-4)GlcNAc(b1-2)[Gal(b1-4)GlcNAc(b1-3)Gal(b1-4)GlcNAc(b1-3)Gal(b1-4)GlcNAc(b1-3)Gal(b1-4)GlcNAc(b1-3)Gal(b1-4)GlcNAc(b1-6)]Man(a1-6)[Gal(b1-4)GlcNAc(b1-3)Gal(b1-4)GlcNAc(b1-3)Gal(b1-4)GlcNAc(b1-3)Gal(b1-4)GlcNAc(b1-3)Gal(b1-4)GlcNAc(b1-2)Man(a1-3)]Man(b1-4)GlcNAc(b1-4)[Fuc(a1-6)]GlcNAc
# Summary of the method: as §1
# [10] = biological target: Gal(b1-4)GlcNAc(b1-3)Gal(b1-4)GlcNAc(b1-3)Gal(b1-4)GlcNAc(b1-3)Gal(b1-4)GlcNAc(b1-3)Gal(b1-4)GlcNAc(b1-3)Gal(b1-4)GlcNAc(b1-2)Man(a1-3)[Gal(b1-4)GlcNAc(b1-3)Gal(b1-4)GlcNAc(b1-3)Gal(b1-4)GlcNAc(b1-3)Gal(b1-4)GlcNAc(b1-3)Gal(b1-4)GlcNAc(b1-3)Gal(b1-4)GlcNAc(b1-2)Man(a1-6)]Man(b1-4)GlcNAc(b1-4)GlcNAc
# Summary of the method: as §1
# [11] = biological target: Gal(b1-4)GlcNAc(b1-3)Gal(b1-4)GlcNAc(b1-3)GalNAc
# Summary of the method: as §1
# [12] = biological target: Gal(b1-4)GlcNAc(b1-3)Gal(b1-4)GlcNAc(b1-3)[Gal(b1-4)GlcNAc(b1-3)Gal(b1-4)GlcNAc(b1-6)]GalNAc
# Summary of the method: as §1
# [13] = biological target: Gal(b1-4)GlcNAc(b1-3)Gal(b1-4)GlcNAc(b1-6)[Gal(b1-3)]GalNAc
# Summary of the method: as §1
# [14] = biological target: Gal(b1-4)GlcNAc(b1-3)Gal(b1-4)[Fuc(a1-3)]GlcNAc(b1-3)Gal(b1-4)[Fuc(a1-3)]GlcNAc
# Summary of the method: as §1
# [15] = biological target: Gal(b1-4)GlcNAc(b1-3)GalNAc
# Summary of the method: as §1
# [16] = biological target: Gal(b1-4)GlcNAc(b1-3)[Fuc(a1-3)GlcNAc(b1-6)]Gal(b1-4)Glc
# Summary of the method: as §1
# [17] = biological target: Gal(b1-4)GlcNAc(b1-3)[Gal(b1-4)GlcNAc(b1-6)]Gal(b1-4)GlcNAc
# Summary of the method: as §1
# [18] = biological target: Gal(b1-4)GlcNAc(b1-3)[GlcNAc(b1-6)]Gal(b1-4)GlcNAc
# Summary of the method: as §1
# [19] = biological target: Gal(b1-4)GlcNAc(b1-6)Gal(b1-4)GlcNAc
# Summary of the method: as §1
binder,measurement,setting,value
B1,glycan array binding signal (z-score),[1],0.114
same,glycan array binding signal (z-score),[2],-0.104
same,glycan array binding signal (z-score),[3],0.438
same,glycan array binding signal (z-score),[4],-0.091
same,glycan array binding signal (z-score),[5],-0.062
same,glycan array binding signal (z-score),[6],0.871
same,glycan array binding signal (z-score),[7],0.011
same,glycan array binding signal (z-score),[8],-0.216
same,glycan array binding signal (z-score),[9],3.23
same,glycan array binding signal (z-score),[10],-0.11
same,glycan array binding signal (z-score),[11],-0.104
same,glycan array binding signal (z-score),[12],-0.087
same,glycan array binding signal (z-score),[13],-0.155
same,glycan array binding signal (z-score),[14],-0.157
same,glycan array binding signal (z-score),[15],-0.228
same,glycan array binding signal (z-score),[16],-0.228
same,glycan array binding signal (z-score),[17],-0.145
same,glycan array binding signal (z-score),[18],-0.262
same,glycan array binding signal (z-score),[19],-0.187
